22 molecules from publication PMC12136788 can be followed below.

B1: chr13:113097702:113097803:+|3pUTR|ENSG00000126217|unk|total|mutant (ssRNA)
RNA: GGGAGUUCUACAGUCCGACGAUCAAAGAAAAUACAAAGAUGCAGUUUCUGCAGGGUGUGGCGUGGACCAGUGCUGCCGACCACCGCUCAGAGAGCCCUGCCCCUGCCUCACUGCACUGCAGCCUCCUCGGAGGCCGCACCUCCCAACAGAGGAUUGAGCAUCA
B2: chr2:182777146:182777247:+|3pUTR|ENSG00000077232|msi1|FALSE|unique (ssRNA)
RNA: GGGAGUUCUACAGUCCGACGAUCUGAAGAUGAAGAAAAAGUUUAAAAGAAAUUCUGACAGAUGACAUCAGAAGACACCUAUUUAGAAUGUUACAUUUAUGAUGGGAAUGAAUGAACAUUAUCUUAGACUUGCAGUUGUACUGCCAACAGAGGAUUGAGCAUCA
B3: chrX:15345595:15346132:-|three_prime_utr|ENSG00000165197|control|control|control (ssRNA)
RNA: GGGAGUUCUACAGUCCGACGAUCCAGACCAACCUUCCAUUCACACCAGCUAAGGAGUCCCUGGUUCAUUGAUGGAUGUCUUCUAGCUGCAGAUGCCUCUGCGCACCAAGGAAUGGAGAGGAGGGGACCCAUGUAAUCCUUUUGCAACAGAGGAUUGAGCAUCA
B4: chr10:95606323:95606429:-|3pUTR|ENSG00000059573|unk|FALSE|bound_elsewhere (ssRNA)
RNA: GGGAGUUCUACAGUCCGACGAUCCCAUGGCUGCUUUGUGUCACCUCAGUGACUUACAGUCCCCCUUGGCAUUUAGUUGGUACUAGAGCCAGUCAUCCUUAACAAAUCUUUUCACAUUUUAUUUCUUUCACAUGUAGUCAUCUUCAACAGAGGAUUGAGCAUCA
B5: chr12:76027553:76027654:-|3pUTR|ENSG00000139289|msi1|total|mutant (ssRNA)
RNA: GGGAGUUCUACAGUCCGACGAUCCUCCUGAGCCGCUGGGACUACAGGUGAAUGCCACCACGCCCGGCUGAUUUUUGUAUUUUCCGCCGAGAUGGGGUUUCACCACCGUGGUCAGGCUGUUCUCGAACUCCUGACCUCAGGUGACAACAGAGGAUUGAGCAUCA
B6: chr8:42175503:42175666:-|3pUTR|ENSG00000104368|msi1|FALSE|unique (ssRNA)
RNA: GGGAGUUCUACAGUCCGACGAUCAUGAAAGCAUGUCUCAAUAGUAAAAGAUAACAAGAUCUUUCAGGAAAGACGGAUUGCAUUAGAAAUAGACAGUAUAUUUAUAGUCACAAGAGCCCAGCAGGGCCUCAAAGUUGGGGCAGGCAACAGAGGAUUGAGCAUCA
B7: chr1:156742365:156742464:-|3pUTR|ENSG00000143321|msi1_unk|total|mutant (ssRNA)
RNA: GGGAGUUCUACAGUCCGACGAUCAUUUCUGAGGUGCACUGGGAGGCUCCCCUUCUAUUUGGGGCUUGAUGACUUUCUUUUUGCCGCUGGGGCUUUGAUGUUCCUUCCAGUGUCAUUUCUCAUCCACAUACCCUGACCUGGCCCCAACAGAGGAUUGAGCAUCA
B8: chr4:177430861:177430962:-|3pUTR|ENSG00000038002|msi1|total|mutant (ssRNA)
RNA: GGGAGUUCUACAGUCCGACGAUCUUUACUAAUUCCUUGUGCAGAGGUGGGUAUGGCAAUCCGAAGUCAAGAAAUGGGUUGUUCCGCUUGGUUUGUUUCCCUAACUUCUGAUUAACUCUCUGUAUGACAACUCUACAGAAGUUGCAACAGAGGAUUGAGCAUCA
B9: chr4:138171112:138171219:-|3pUTR|ENSG00000151012|msi1|FALSE|unique (ssRNA)
RNA: GGGAGUUCUACAGUCCGACGAUCUUUUUUUUUUUCACAUCAGUUUGAUCAGGAAAGUGUAUAACACAUCUUAGAGCAAGAGUUAGUUUGGUAUUAAAUCCUCAUUAGAACAACCACCUGUUUCACUAAUAACUUACCCCUGAUCAACAGAGGAUUGAGCAUCA
B10: chr11:69651622:69651678:+|3pUTR|ENSG00000110092|msi1_unk|FALSE|overlapping (ssRNA)
RNA: GGGAGUUCUACAGUCCGACGAUCUUAUACCCCAAUAAUCAACUCGUUUUUAUAUUAAUGUACUUGUUUCUCUGUUGUAAGAAUAGGCAUUAACACAAAGGAGGCGUCUCGGGAGAGGAUUAGGUUCCAUCCUUUACGUGUUUACAACAGAGGAUUGAGCAUCA
B11: chr6:87085629:87085739:-|3pUTR|ENSG00000135346|unk|FALSE|unique (ssRNA)
RNA: GGGAGUUCUACAGUCCGACGAUCGUUUUACCAAGUGCUGUCUUGAUGACUGCUGAUUUUCUGGAAUGGAAAAUUAAGUUGUUUAGUGUUUAUGGCUUUGUGAGAUAAAACUCUCCUUUUCCUUACCAUACCACUUUGACACGCCAACAGAGGAUUGAGCAUCA
B12: chr17:78853230:78853302:-|3pUTR|ENSG00000035862|msi1_unk|total|mutant (ssRNA)
RNA: GGGAGUUCUACAGUCCGACGAUCCUCUUCUCCUAUUUUCAUCCUGCAAGCAACUCAAAAUAUUUAAAAUAAAGUUUACAUUGCCGUUAUUUUCAAAUCUUUGCUUGAUAAGUAUUAAGAAAUAUUGGACUUGCUGCCGUAAUUCAACAGAGGAUUGAGCAUCA
B13: chr6:52791370:52791857:-|three_prime_utr|ENSG00000243955|control|control|control (ssRNA)
RNA: GGGAGUUCUACAGUCCGACGAUCGCUAAUGAACUCUUUCAAAUUAUAUGCUAAUUAAAUAAUACAACUCCUAUUCGCUGACUUAGUUAAAAUUGAUUUGUUUUCAUUAGGAUCUGAUGUGAAUUCAGAUUUCCAAUCUUCUCCCAACAGAGGAUUGAGCAUCA
B14: chr1:178442813:178442920:+|CDS|ENSG00000075391|unk|FALSE|unique (ssRNA)
RNA: GGGAGUUCUACAGUCCGACGAUCAAAGCAGACAAUAUUUUCUGGGGCGAACAUUUUGAAUUCUUCAGCCUUCCACCUCUUCAUAGUAUCACAGUUCACAUUUACAAGGAUGUGGAAAAAAAGAAAAAAAAGGACAAGAAUAAUCAACAGAGGAUUGAGCAUCA
B15: chr1:117959336:117959438:+|CDS|ENSG00000065183|unk|total|mutant (ssRNA)
RNA: GGGAGUUCUACAGUCCGACGAUCGAUUAUCUCAAGAGGGAAUGCGAGGCAAAAAGUGAAGUUAUGUUUUUUGCUGAUGCUACCCGCCACUUGGAAGAGAAGAAGAGGAAGAGGAAAAAGAGGGAGAAGUUGAUUCUAACGUUGCAACAGAGGAUUGAGCAUCA
B16: chr4:177430861:177430962:-|3pUTR|ENSG00000038002|msi1|FALSE|unique (ssRNA)
RNA: B8 RNA with C60U, C61A, C83U, C84A
B17: chr15:34978960:34979061:-|3pUTR|ENSG00000198146|msi1|total|mutant (ssRNA)
RNA: GGGAGUUCUACAGUCCGACGAUCGCCCUCUGUAUCCAUGUACUCUGCAUCUGUGGAUUAAACCAAUUGCAGAUCAAAAAUAUCCGAAAAAAUAAAAAUAAUACAAAUAAAAAUACAGUAUAACAGUUAUUUAAACCGCAUUUACAACAGAGGAUUGAGCAUCA
B18: chr19:41432845:41433434:-|three_prime_utr|ENSG00000105341|control|control|control (ssRNA)
RNA: GGGAGUUCUACAGUCCGACGAUCGCCCAGGCACCUCUCCCACCUAACCCAGAUGCAGGAGAGGAAGUGGGGAGGGGCAAUGUUAGGCAGUUCUCAUAUCCCCCUGCAUCCAUCACAAACCUAGAGUAUUUAUGGUAGAUGAGCCAACAGAGGAUUGAGCAUCA
B19: chr2:30910466:30910900:-|three_prime_utr|ENSG00000158089|control|control|control (ssRNA)
RNA: GGGAGUUCUACAGUCCGACGAUCUCCUUUUCCUACAAAGGAAGCAGUCUCUGGAGGCCAGAAAGAAAAGCCUUCUUUUUCACUAGGCCAGGACUACAUUGAGAGAUGAAGAAUGGAGGUUGUUUCCAAAAGAAAUAAAGAGAACAACAGAGGAUUGAGCAUCA
B20: ENSG00000124766:be:win_3851|3pUTR|ENSG00000124766|bound_else_gene|NA|bound_elsewhere_windowed (ssRNA)
RNA: GGGAGUUCUACAGUCCGACGAUCUCCGUUAAGGGUUUUUGUUUUUAAACUUUUUUUUGCCAUCCAUCCUGUGCAAUAUGCCGUGUAGAAUAUUUGUCUUAAAAUUCAAGGCCACAAAAACAAUGUUUGGGGGAAAAAAAAGAACAACAGAGGAUUGAGCAUCA
B21: chr17:58089516:58089557:+|3pUTR|ENSG00000264364|msi1_unk|FALSE|overlapping (ssRNA)
RNA: GGGAGUUCUACAGUCCGACGAUCGAAGGCUGCUUUAUGUUUAUUUUUCAAGACUUUAAAAAUAUUUUUUGGUUGUAUUGCACUAGGAAAUCUCUCCCACCUCUCCCUUUUCUCUUUCUUUCCCUAUACAAAAUAAAAGGCCCACAACAGAGGAUUGAGCAUCA
B22: chr10:16593140:16593241:-|3pUTR|ENSG00000148484|unk|FALSE|unique (ssRNA)
RNA: GGGAGUUCUACAGUCCGACGAUCUUAUUUUUCUUUUCACUCUCUUUCUAAUGCUUCCCACCUUACCUUUUAGAUUCUUUUGCUAGGUGGGAGAUUGUUAUAAGGUCUUUAAACCAUUUCCAUUUGUUUCUUUAACAUUACCAACAACAGAGGAUUGAGCAUCA

Changes are numbered by the printed parent chain. This is one part of the list.

The target of the assay is MSI1 full-length (mouse, UniProt Q61474 1-362). Put plainly: nsRBNS (natural sequence RNA bind-n-seq); RBNS binding buffer (assumed for nsRBNS): 25 mM Tris pH 7.5, 150 mM KCl, 3 mM MgCl2, 0.01% Triton X-100, 500 ug/ml BSA, 20 U/ml SUPERase-In, 4 C; UNK is unkempt and MSI1 is Musashi-1; names of the RNAs are library labels; protein concentration not given here; high values mean tight binding.
Chain of UniProt Q61474 (Q61474 whole entry): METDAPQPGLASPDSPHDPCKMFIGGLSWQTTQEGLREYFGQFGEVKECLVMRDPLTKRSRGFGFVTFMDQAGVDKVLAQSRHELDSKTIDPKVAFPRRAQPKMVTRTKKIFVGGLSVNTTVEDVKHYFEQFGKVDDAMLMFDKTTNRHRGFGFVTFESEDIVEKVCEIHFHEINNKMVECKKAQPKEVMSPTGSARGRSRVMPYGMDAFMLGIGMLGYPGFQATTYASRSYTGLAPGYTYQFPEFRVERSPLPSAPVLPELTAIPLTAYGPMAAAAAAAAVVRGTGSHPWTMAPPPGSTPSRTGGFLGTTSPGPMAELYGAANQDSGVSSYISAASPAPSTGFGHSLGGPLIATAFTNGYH
Molecule B1 showed a binding signal of 0.48 enrichment R. B2 gave a binding signal of 1.03 enrichment R. To B3 belongs 0.394 enrichment R; to B4, 6.89 enrichment R. The molecule B5 showed a binding signal of 0.37 enrichment R. Consider B6, for which the binding signal turned out to be 41.9 enrichment R. As to B7, the binding signal is 0.353 enrichment R. As for B8, the binding signal amounted to 0.375 enrichment R. The figure for B9 is 10.8 enrichment R. Take B10: the binding signal turned out to be 1.75 enrichment R.

B11 had a binding signal of 0.459 enrichment R. To B12 belongs 0.841 enrichment R; to B13, 4.6 enrichment R.

The molecule B14 had a binding signal of 0.844 enrichment R. The figure for B15 is 0.524 enrichment R. The figure for B16 is 0.6 enrichment R; for B17 it is 2.16 enrichment R; for B18 it is 3.97 enrichment R.

B19 gave a binding signal of 0.297 enrichment R. The figure for B20 is 0.715 enrichment R. Molecule B21 showed a binding signal of 1.58 enrichment R.

B22 returned a binding signal of 10.5 enrichment R.
